Assay results as given in US20250243260A1 (ALPINE IMMUNE SCIENCES, published 2025).

Legend:
human CTLA-4 = molecular target: T1, human CTLA-4 (human, UniProt P16410 36-223); experiment: flow cytometry on CHO/CTLA-4 cells
T1 construct: whole, on cells; also called CHO/CTLA-4 cells

[1] = molecular target: T2, human CD28 (endogenously expressed on primary human T cells) (human, UniProt P10747 19-220); experiment: flow cytometry, primary human T cells
T2 construct: whole, on cells
Protocol: Binding affinity to CD28 was determined using primary human T cells which endogenously express CD28. Binding to PD-L1 was determined using SCC152 cells transduced with human PD-L1. Binding to CTLA-4 was measured using Chinese hamster ovary (CHO) cells stably transduced to express human CTLA-4.
For staining and analysis by flow cytometry, 75,000 human T cells, SCC152/PD-L1 cells, or CHO/CTLA-4 cells were plated in 96-well round-bottom plates. Cells were spun down and resuspended in staining buffer (PBS (phosphate buffered saline), 1% BSA (bovine serum albumin), 1 mM EDTA, and 0.1% sodium azide) for 20 minutes to block non-specific binding. Afterwards, cells were centrifuged, stain buffer aspirated, and then resuspended in 50 μL of a 1:5 serial dilution of each CD80-Fc candidate variant starting at 100 nM ending at 0.8 nM. Primary staining was performed on ice for 60 minutes, before washing cells in […] staining buffer three times. PE-conjugated anti-human Fc (Jackson ImmunoResearch, USA) was diluted 1:250 in 50 μL staining buffer and added to cells and incubated another 30 minutes at 4° C. Cells were washed two times in 150 μL stain buffer and then fixed in 2% formaldehyde/PBS for 5 minutes at room temperature. Samples were analyzed CytoFLEX LX flow cytometer (Beckman Coulter, USA). Median Fluorescence Intensity (MFI) was calculated for each cell type using the CytExpert software from Beckman Coulter.

human CTLA-4, sequence (P16410 36-223): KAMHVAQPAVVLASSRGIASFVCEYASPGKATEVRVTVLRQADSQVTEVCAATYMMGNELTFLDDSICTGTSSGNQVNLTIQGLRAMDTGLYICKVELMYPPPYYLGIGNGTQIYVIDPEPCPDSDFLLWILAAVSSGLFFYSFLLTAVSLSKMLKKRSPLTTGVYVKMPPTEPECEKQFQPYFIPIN

MFI at 0.8 nM (human CTLA-4) [MFI]	MFI at 4 nM (human CTLA-4) [MFI]	MFI at 20 nM (human CTLA-4) [MFI]	MFI at 100 nM (human CTLA-4) [MFI]	fold change vs WT CD80 at 20 nM (human CTLA-4) [fold]	MFI (anti-human Fc) at 0.8 nM [1] [MFI]	MFI (anti-human Fc) at 4 nM [1] [MFI]	MFI (anti-human Fc) at 20 nM [1] [MFI]	MFI (anti-human Fc) at 100 nM [1] [MFI]	fold change of MFI vs WT CD80 at 20 nM [1] [fold]	Binder
217000	525000	829000	856000	1						WT CD80 ECD Fc IgG4 (Fc fusion, also called wildtype CD80 ECD-Fc) VIHVTKEVKEVATLSCGHNVSVEELAQTRIYWQKEKKMVLTMMSGDMNIWPEYKNRTIFDITNNLSIVILALRPSDEGTYECVVLKYEKDAFKREHLAEVTLSVKADFPTPSISDFEIPTSNIRRIICSTSGGFPEPHLSWLENGEELNAINTTVSQDPETELYAVSSKLDFNMTTNHSFMCLIKYGHLRVNQTFNWNTTKQEHFPDNGSGGGGS[omitted - human IgG4 Fc with S228P (EU numbers)]
253000	473000	505000	491000	0.61						CD80_241 variant CD80 IgV-Fc (E10S, V11F, T28Y, M47L) (Fc fusion, also called CD80_241-Fc) VIHVTKEVKSFATLSCGHNVSVEELAQYRIYWQKEKKMVLTMMSGDLNIWPEYKNRTIFDITNNLSIVILALRPSDEGTYECVVLKYEKDAFKREHLAEVTLSVKADGSGGGGS[omitted - human IgG4 Fc with S228P (EU numbers)]
					220	335	680	1420	3.8	CD80_185-Fc, variant CD80 IgV-Fc V11Y/T28Y/M47L (Fc fusion, variant IgV - GSGGGGS - human IgG4 Fc (S228P)) VIHVTKEVKEYATLSCGHNVSVEELAQYRIYWQKEKKMVLTMMSGDLNIWPEYKNRTIFDITNNLSIVILALRPSDEGTYECVVLKYEKDAFKREHLAEVTLSVKADGSGGGGS[omitted - human IgG4 Fc with S228P (EU numbers)]
306000	507000	497000	527000	0.6						CD80_244 variant CD80 IgV-Fc (V11Y, T28Y, M47L, Y87R) (Fc fusion, also called CD80_244-Fc) VIHVTKEVKEYATLSCGHNVSVEELAQYRIYWQKEKKMVLTMMSGDLNIWPEYKNRTIFDITNNLSIVILALRPSDEGTYECVVLKREKDAFKREHLAEVTLSVKADGSGGGGS[omitted - human IgG4 Fc with S228P (EU numbers)]
					181	187	187	206	1	CD80_168-Fc, variant CD80 IgV-Fc K9N/E10G/N63S/L85E (Fc fusion, variant IgV - GSGGGGS - human IgG4 Fc (S228P)) VIHVTKEVNGVATLSCGHNVSVEELAQTRIYWQKEKKMVLTMMSGDMNIWPEYKNRTIFDITSNLSIVILALRPSDEGTYECVVEKYEKDAFKREHLAEVTLSVKADGSGGGGS[omitted - human IgG4 Fc with S228P (EU numbers)]
					271	455	756	1040	4.2	CD80_169-Fc, variant CD80 IgV-Fc E10G/E35G/D46E/M47V/V68M (Fc fusion, variant IgV - GSGGGGS - human IgG4 Fc (S228P)) VIHVTKEVKGVATLSCGHNVSVEELAQTRIYWQKGKKMVLTMMSGEVNIWPEYKNRTIFDITNNLSIMILALRPSDEGTYECVVLKYEKDAFKREHLAEVTLSVKADGSGGGGS[omitted - human IgG4 Fc with S228P (EU numbers)]
					269	455	696	888	3.9	CD80_170-Fc, variant CD80 IgV-Fc K9N/E10G/E35G/D46E/M47V/V68M (Fc fusion, variant IgV - GSGGGGS - human IgG4 Fc (S228P)) VIHVTKEVNGVATLSCGHNVSVEELAQTRIYWQKGKKMVLTMMSGEVNIWPEYKNRTIFDITNNLSIMILALRPSDEGTYECVVLKYEKDAFKREHLAEVTLSVKADGSGGGGS[omitted - human IgG4 Fc with S228P (EU numbers)]
					186	202	269	436	1.5	CD80_173-Fc, variant CD80 IgV-Fc V11Y/T28Y/M47L/L85E (Fc fusion, variant IgV - GSGGGGS - human IgG4 Fc (S228P)) VIHVTKEVKEYATLSCGHNVSVEELAQYRIYWQKEKKMVLTMMSGDLNIWPEYKNRTIFDITNNLSIVILALRPSDEGTYECVVEKYEKDAFKREHLAEVTLSVKADGSGGGGS[omitted - human IgG4 Fc with S228P (EU numbers)]
308000	498000	520000	507000	0.63						CD80_242 variant CD80 IgV-Fc (V11F, T28Y, M47L, T62S) (Fc fusion, also called CD80_242-Fc) VIHVTKEVKEFATLSCGHNVSVEELAQYRIYWQKEKKMVLTMMSGDLNIWPEYKNRTIFDISNNLSIVILALRPSDEGTYECVVLKYEKDAFKREHLAEVTLSVKADGSGGGGS[omitted - human IgG4 Fc with S228P (EU numbers)]
					183	192	207	216	1.2	CD80_167-Fc, variant CD80 IgV-Fc V11Y/M42I/M47V/A71G (Fc fusion, variant IgV - GSGGGGS - human IgG4 Fc (S228P)) VIHVTKEVKEYATLSCGHNVSVEELAQTRIYWQKEKKMVLTIMSGDVNIWPEYKNRTIFDITNNLSIVILGLRPSDEGTYECVVLKYEKDAFKREHLAEVTLSVKADGSGGGGS[omitted - human IgG4 Fc with S228P (EU numbers)]
					183	201	272	463	1.5	CD80_176-Fc, variant CD80 IgV-Fc E10R/H18Y/A26G/E35D/V68L/L85E (Fc fusion, variant IgV - GSGGGGS - human IgG4 Fc (S228P)) VIHVTKEVKRVATLSCGYNVSVEELGQTRIYWQKDKKMVLTMMSGDMNIWPEYKNRTIFDITNNLSILILALRPSDEGTYECVVEKYEKDAFKREHLAEVTLSVKADGSGGGGS[omitted - human IgG4 Fc with S228P (EU numbers)]
					189	195	196	191	1.1	CD80_165-Fc, variant CD80 IgV-Fc V11Y/M47V/F59S/L85E (Fc fusion, variant IgV - GSGGGGS - human IgG4 Fc (S228P)) VIHVTKEVKEYATLSCGHNVSVEELAQTRIYWQKEKKMVLTMMSGDVNIWPEYKNRTISDITNNLSIVILALRPSDEGTYECVVEKYEKDAFKREHLAEVTLSVKADGSGGGGS[omitted - human IgG4 Fc with S228P (EU numbers)]
335000		555000	575000	0.67						CD80_243 variant CD80 IgV-Fc (V11Y, M47L, A71G, Y87R) (Fc fusion, also called CD80_243-Fc) VIHVTKEVKEYATLSCGHNVSVEELAQTRIYWQKEKKMVLTMMSGDLNIWPEYKNRTIFDITNNLSIVILGLRPSDEGTYECVVLKREKDAFKREHLAEVTLSVKADGSGGGGS[omitted - human IgG4 Fc with S228P (EU numbers)]
					280	526	1110	1870	6.2	CD80_171-Fc, variant CD80 IgV-Fc E7S/H18I/V20L/A26K/M47L/A71N (Fc fusion, variant IgV - GSGGGGS - human IgG4 Fc (S228P)) VIHVTKSVKEVATLSCGINLSVEELKQTRIYWQKEKKMVLTMMSGDLNIWPEYKNRTIFDITNNLSIVILNLRPSDEGTYECVVLKYEKDAFKREHLAEVTLSVKADGSGGGGS[omitted - human IgG4 Fc with S228P (EU numbers)]
					276	470	796	1190	4.4	CD80_175-Fc, variant CD80 IgV-Fc E10S/V11F/T28Y/M47L/T62S (Fc fusion, variant IgV - GSGGGGS - human IgG4 Fc (S228P)) VIHVTKEVKSFATLSCGHNVSVEELAQYRIYWQKEKKMVLTMMSGDLNIWPEYKNRTIFDISNNLSIVILALRPSDEGTYECVVLKYEKDAFKREHLAEVTLSVKADGSGGGGS[omitted - human IgG4 Fc with S228P (EU numbers)]
					179	192	199	205	1.1	CD80_166-Fc, variant CD80 IgV-Fc V11Y/M47V/L85E (Fc fusion, variant IgV - GSGGGGS - human IgG4 Fc (S228P)) VIHVTKEVKEYATLSCGHNVSVEELAQTRIYWQKEKKMVLTMMSGDVNIWPEYKNRTIFDITNNLSIVILALRPSDEGTYECVVEKYEKDAFKREHLAEVTLSVKADGSGGGGS[omitted - human IgG4 Fc with S228P (EU numbers)]
					223	372	722	1200	4	CD80_172-Fc, variant CD80 IgV-Fc K9R/E10S/V11Y/M42L/F59M/V68M/L85E (Fc fusion, variant IgV - GSGGGGS - human IgG4 Fc (S228P)) VIHVTKEVRSYATLSCGHNVSVEELAQTRIYWQKEKKMVLTLMSGDMNIWPEYKNRTIMDITNNLSIMILALRPSDEGTYECVVEKYEKDAFKREHLAEVTLSVKADGSGGGGS[omitted - human IgG4 Fc with S228P (EU numbers)]
